Tests used:
Type in all cases: cell-based
[1] = tested on: SK-MEL-28 cells; assay: Real-time PCR Apoptosis Array; conditions: 100 μM
Procedure: (§1) The formulation of the Q10 was as follows. […] The resulting solution was warmed in a 65° C. water bath and vortexed at high speed. […] For the control vehicle, 9.5 mL of media was added to 500 μL of isopropanol. The control stock was further diluted (2 mL of stock) with 8 mL of media.
(§2) RNA was quantified by measuring Optical Density at 260 nm.
(§3) (SABiosciences, Frederick, Md.).
A vehicle was prepared in parallel with a similar protocol except that the Coenzyme Q10 was not added.
Changes in mRNA levels were evaluated using real-time PCR quantification to assess mRNA levels in pre-selected subsets containing […] pathway specific targets.
For the interpretation of mRNA results, the genes that were altered in their mRNA transcription by a two-fold level were identified and evaluated. The level of gene transcription to produce mRNA only provides a rough estimate of potential changes in the level of the expressed protein. The skilled artisan will appreciate that each mRNA may have different rates at which it is degraded or its translation inefficiently, thus resulting in differing amounts of protein.

[2] = tested on: SK-MEL-28 cells; assay: Real-time PCR Diabetes Array; conditions: 100 μM Q10, at 48 hours
Procedure: as §1, §2, §3

[3] = tested on: SK-MEL-28 cells; assay: Antibody microarray (Panorama XP725 Antibody Array)
[4] = tested on: SK-MEL-28 cells; assay: Real-time PCR Oxidative Stress and Antioxidant Defense Array
Procedure: The resulting solution was warmed in a 65° C. water bath and vortexed at high speed. […] For the control vehicle, 9.5 mL of media was added to 500 μL of isopropanol. The control stock was further diluted (2 mL of stock) with 8 mL of media. […] RNA was quantified by measuring Optical Density at 260 nm. […] Experimental details: […] (SABiosciences, Frederick, Md.). […] Results are given only for those genes that are regulated in two independent experiments. […] Further experiments were carried out using SKMEL-28 cells. […] The PCR array (SABiosciences) is a set of optimized real-time PCR primer assays on 96-well plates for pathway or disease focused genes as well as appropriate RNA quality controls. The PCR array performs gene expression analysis with real-time PCR sensitivity and the multi-gene profiling capability of a microarray.

COC1=C(OC)C(=O)C(C/C=C(\C)CC/C=C(\C)CC/C=C(\C)CC/C=C(\C)CC/C=C(\C)CC/C=C(\C)CC/C=C(\C)CC/C=C(\C)CC/C=C(\C)CCC=C(C)C)=C(C)C1=O [Q10, Coenzyme Q10]
ABL1 change in mRNA level ([1]; 6 hr Q10): 1.42 | B2M change in mRNA level ([1]; 6 hr Q10): 1.74 | BAG1 change in mRNA level ([1]; 6 hr Q10): 1.41 | BAK1 change in mRNA level ([1]; 6 hr Q10): 1.06 | BCL2L1 change in mRNA level ([1]; 6 hr Q10): −4.94 | BCL2L11 change in mRNA level ([1]; 6 hr Q10): 2.13 | BCL2 change in mRNA level ([1]; 6 hr Q10): −2.98 | BCL10 change in mRNA level ([1]; 6 hr Q10): 1.55 | BIRC3 change in mRNA level ([1]; 6 hr Q10): −13.68 | BNIP2 change in mRNA level ([1]; 6 hr Q10): 1.46 | CASP9 change in mRNA level ([1]; 6 hr Q10): 1.32 | CD27 change in mRNA level ([1]; 6 hr Q10): −3.40 | CIDEB change in mRNA level ([1]; 6 hr Q10): −3.48 | GADD45A change in mRNA level ([1]; 6 hr Q10): 1.07 | HRK change in mRNA level ([1]; 6 hr Q10): 1.18 | IGF1R change in mRNA level ([1]; 6 hr Q10): 1.77 | TNFRSF1A change in mRNA level ([1]; 6 hr Q10): −4.53 | TNFRSF10B change in mRNA level ([1]; 6 hr Q10): −2.07 | TP73 change in mRNA level ([1]; 6 hr Q10): −4.66 | B2M change in mRNA level ([1]; 16 hr Q10): 1.76 | BAG1 change in mRNA level ([1]; 16 hr Q10): 1.44 | BAK1 change in mRNA level ([1]; 16 hr Q10): 2.73 | BCL2L1 change in mRNA level ([1]; 16 hr Q10): −1.80 | BCL2L11 change in mRNA level ([1]; 16 hr Q10): 2.41 | BCL2 change in mRNA level ([1]; 16 hr Q10): −1.63 | BCL10 change in mRNA level ([1]; 16 hr Q10): 1.87 | BIRC3 change in mRNA level ([1]; 16 hr Q10): −1.98 | BNIP2 change in mRNA level ([1]; 16 hr Q10): 1.51 | CASP9 change in mRNA level ([1]; 16 hr Q10): 3.96 | CD27 change in mRNA level ([1]; 16 hr Q10): −2.38 | CIDEB change in mRNA level ([1]; 16 hr Q10): 1.56 | GADD45A change in mRNA level ([1]; 16 hr Q10): 3.34 | HRK change in mRNA level ([1]; 16 hr Q10): 4.52 | IGF1R change in mRNA level ([1]; 16 hr Q10): 1.09 | TNFRSF1A change in mRNA level ([1]; 16 hr Q10): 2.28 | TNFRSF10A change in mRNA level ([1]; 16 hr Q10): −5.26 | TNFRSF10B change in mRNA level ([1]; 16 hr Q10): 1.53 | TP73 change in mRNA level ([1]; 16 hr Q10): −9.80 | TRAF4 change in mRNA level ([1]; 16 hr Q10): 2.63 | ABL1 change in mRNA level ([1]; 24 hr Q10): −1.22 | B2M change in mRNA level ([1]; 24 hr Q10): 1.58 | BAG1 change in mRNA level ([1]; 24 hr Q10): −1.61 | BAK1 change in mRNA level ([1]; 24 hr Q10): −1.00 | BCL2L1 change in mRNA level ([1]; 24 hr Q10): −6.17 | BCL2L11 change in mRNA level ([1]; 24 hr Q10): 1.92 | BCL2 change in mRNA level ([1]; 24 hr Q10): −2.82 | BCL10 change in mRNA level ([1]; 24 hr Q10): 1.48 | BIRC3 change in mRNA level ([1]; 24 hr Q10): −2.42 | BNIP2 change in mRNA level ([1]; 24 hr Q10): 1.57 | CASP9 change in mRNA level ([1]; 24 hr Q10): 1.83 | CD27 change in mRNA level ([1]; 24 hr Q10): −1.35 | CIDEB change in mRNA level ([1]; 24 hr Q10): −3.69 | GADD45A change in mRNA level ([1]; 24 hr Q10): 1.13 | HRK change in mRNA level ([1]; 24 hr Q10): 2.73 | IGF1R change in mRNA level ([1]; 24 hr Q10): 1.33 | TNFRSF10A change in mRNA level ([1]; 24 hr Q10): −4.33 | TNFRSF10B change in mRNA level ([1]; 24 hr Q10): −1.81 | TP73 change in mRNA level ([1]; 24 hr Q10): −8.71 | TRAF4 change in mRNA level ([1]; 24 hr Q10): −1.58 | ABL1 change in mRNA level ([1]; 72 hr Q10): −2.03 | BAG1 change in mRNA level ([1]; 72 hr Q10): −2.45 | BAK1 change in mRNA level ([1]; 72 hr Q10): −4.54 | BCL2L1 change in mRNA level ([1]; 72 hr Q10): −7.04 | BCL2L11 change in mRNA level ([1]; 72 hr Q10): 2.51 | BCL2 change in mRNA level ([1]; 72 hr Q10): −11.36 | BCL10 change in mRNA level ([1]; 72 hr Q10): −3.11 | BIRC3 change in mRNA level ([1]; 72 hr Q10): −3.42 | BNIP2 change in mRNA level ([1]; 72 hr Q10): −1.61 | CASP9 change in mRNA level ([1]; 72 hr Q10): 1.14 | CD27 change in mRNA level ([1]; 72 hr Q10): −12.72 | CIDEB change in mRNA level ([1]; 72 hr Q10): −2.59 | GADD45A change in mRNA level ([1]; 72 hr Q10): −2.36 | HRK change in mRNA level ([1]; 72 hr Q10): −1.14 | IGF1R change in mRNA level ([1]; 72 hr Q10): 1.25 | TNFRSF10A change in mRNA level ([1]; 72 hr Q10): −11.84 | TNFRSF10B change in mRNA level ([1]; 72 hr Q10): −710.49 | TP73 change in mRNA level ([1]; 72 hr Q10): −26.96 | TRAF4 change in mRNA level ([1]; 72 hr Q10): −740.66 | CEBPA Regulation [2]: Up regulated at | TNF Regulation [2]: Up regulated at | protein levels of Bcl-xl, Bmf, BTK, BLK, cJun (pSer63), Connexin 32, PUMA bbc3, BID, Par4, cCbl ([3]; 50 μM Q10, 24 hr): altered levels | cerbB3 protein level Ratio ([3]; 50 μM, 24 hour): 2.0 | BID protein level Ratio ([3]; 50 μM, 24 hour, second BID entry): 2.0 | NOX5 (NADPH oxidase) mRNA ([4]; 100 μM Q10): levels do not change | Neutrophil cytosolic factor 1 (NCF1) mRNA ([4]; 100 μM Q10, 16 hour time point and onward): induced at very high levels | DHCR24 mRNA Regulation ([4]; 100 μM Q10, at 6 hours): Down Regulation | GTF2I mRNA Regulation ([4]; 100 μM Q10, at 6 hours): Down Regulation | MPV17 mRNA Regulation ([4]; 100 μM Q10, at 6 hours): Down Regulation | PRDX2 mRNA Regulation ([4]; 100 μM Q10, at 6 hours): Down Regulation | MGST3 mRNA Regulation ([4]; 100 μM Q10, at 16 hours): Upregulation at | RNF7 mRNA Regulation ([4]; 100 μM Q10, at 16 hours): Up Regulation at | SIRT2 mRNA Regulation ([4]; 100 μM Q10, at 16 hours): Up regulation at | SOD1 mRNA Regulation ([4]; 100 μM Q10, at 16 hours): Up Regulation at | SOD2 mRNA Regulation ([4]; 100 μM Q10, at 16 hours): Up regulation at | Nitric oxide synthase 2A (NOS2A) mRNA ([4]; 100 μM Q10, early): second major early induced protein | AOX1 mRNA Regulation ([4]; 100 μM Q10, from 16 hours): Up regulation | PRDX4 mRNA Regulation ([4]; 100 μM Q10, from 24 hours): Down Regulation | Neutrophil cytosolic factor 2 (NCF2) mRNA ([4]; 100 μM Q10, observed at 6 hours): one of the initial top induced mRNA's | NCF1 mRNA level change ([4]; 100 μM, 16 hr): high

From patent publication US9205064B2, “Methods for the diagnosis of oncological disorders using epimetabolic shifters, multidimensional intracellular molecules, or environmental influencers” (Berg LLC, priority 2009, dated 2015)
